# The list shows a part of the results. The full chains were built here from the parent and the listed change. Inactive controls read about 0.05.
# B1: TEV protease; numbered along this chain (parent)
# chain: MGESLFKGPRDYNPISSSICHLTNESDGHTTSLYGIGFGPFIITNKHLFRRNNGTLVVQSLHGVFKVKDTTTLQQHLVDGRDMIIIRMPKDFPPFPQKLKFREPQREERICLVTTNFQTKSMSSMVSDTSCTFPSGDGIFWKHWIQTKDGQCGSPLVSTRDGFIVGIHSASNFTNTNNYFTSVPKNFMELLTNQEAQQWVSGWRLNADSVLWGGHKVFMVKPEEPFQPVKEATQL
# Variants of: B1
# Assay: raw area under fraction-flipped curve 0-4 h after induction (AUC4h, not background-subtracted), DNA-recorder readout of cleavage of the substrate (dimensionless); higher = more cleavage of the substrate by the protease variant
# Conditions: temperature: 34 °C; time window: 0-4 h after rhamnose induction
# Experimental: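 In vivo DNA recorder in E. coli TOP10(DE3) ΔrhaA at 34 °C. Each TEVp single-site mutant (parent TEVp 0) is paired with a single-site variant of the 7-mer TEVs (canonical ENLYFQ|S). The substrate sits between flexible linkers in a Bxb1-sfGFP-TEVs-SsrA fusion, so cleavage stabilises Bxb1 and speeds flipping of a recombination array, read by NGS. The value is the raw area under the fraction-flipped curve over 0-4 h after rhamnose induction (AUC4h), with ≥20 reads per time point. It is not background-subtracted; inactive controls average about 0.047.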
# 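Further: Bxb1 expression induced with 0.2% (w/v) L-rhamnose at OD600 near 0.5, cultures sampled hourly, flipped fraction per protease–substrate barcode pair counted by paired-end Illumina sequencing.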
Variant,area with substrate ENLCFQS,area with substrate ENLDFQS,area with substrate ENLEFQS,area with substrate ENLFFQS,area with substrate ENLHFQS,area with substrate ENLIFQS,area with substrate ENLKFQS,area with substrate ENLMFQS,area with substrate ENLNFQS,area with substrate ENLPFQS,area with substrate ENLQFQS,area with substrate ENLRFQS,area with substrate ENLSFQS,area with substrate ENLTFQS,area with substrate ENLVFQS,area with substrate ENLWFQS,area with substrate ENLGFQS,area with substrate ENLLFQS
S158G,0.0825,0.0637,0.0691,0.108,0.0662,0.0722,0.0963,0.0639,0.0575,0.0524,0.0804,0.0711,0.0745,0.0721,–,–,–,–
V165T,0.063,0.0671,0.0509,0.0509,0.0597,0.0665,0.0691,–,0.0599,–,0.0534,0.0673,0.0393,–,0.0634,0.0553,–,–
V165R,0.0614,0.0562,0.0461,0.0632,0.0557,0.0518,0.0553,–,0.0575,0.0493,0.0463,–,–,–,0.065,0.0536,0.0604,0.0539
W141A,–,0.0476,0.0665,0.0668,0.061,–,0.0633,–,0.0591,0.0575,0.0591,0.0552,0.0616,–,0.0604,0.0567,–,0.0344
I164D,0.0454,0.0438,0.0619,0.0618,–,0.0369,0.051,0.0496,0.0552,0.0611,0.0518,0.0553,0.0576,0.0405,0.0709,–,0.0626,0.0575
T30L,–,0.073,0.0478,0.0666,0.0826,0.14,0.0736,–,0.0741,0.0685,–,0.0743,0.0621,–,–,0.0647,–,0.0792
H215C,0.0652,0.0656,0.0789,–,–,0.0635,–,–,–,0.0618,–,–,0.0541,–,–,0.0492,0.0591,–
T132I,–,0.0602,0.0625,0.0764,0.0704,0.0804,0.0602,–,0.0674,–,0.064,0.0653,0.116,–,–,–,0.0601,0.0676
R204F,0.0803,0.0702,0.0622,0.0937,0.0658,0.0898,0.0767,0.0824,0.0571,0.0556,0.0736,0.0707,0.0903,0.087,–,0.0578,0.0638,0.0972
I110G,–,0.0674,–,–,0.0286,0.0625,0.0484,–,0.0582,0.0564,0.0469,0.0574,0.0502,–,–,0.0501,0.0585,0.0591
P9L,–,0.0657,0.0559,0.0858,0.062,–,0.0894,–,0.0622,0.11,–,0.0815,0.0548,–,0.12,0.0722,–,0.0812
G166A,0.0488,0.0531,0.0467,0.0682,0.0458,0.0728,0.0579,–,0.0616,0.0652,–,0.0524,0.0468,–,0.0406,–,–,0.0488
G166M,–,0.053,0.0322,0.036,0.0469,0.0632,0.0487,0.0499,–,0.0425,0.0848,0.049,0.035,–,0.025,0.0546,–,–
L156Q,0.0504,0.0519,0.0449,0.0671,0.068,0.0556,0.0638,–,0.053,0.0584,–,0.0539,0.0459,–,–,0.0793,–,0.0383
P155D,0.0441,0.0518,0.0596,0.0524,0.0578,0.0472,0.0499,–,0.0516,0.0532,0.0465,0.0538,0.0464,–,0.0516,0.0605,0.0497,0.0634
L190M,0.0834,0.0636,0.0674,–,0.011,–,0.0794,–,0.0657,0.0645,0.0683,–,–,–,0.0809,0.0663,0.0678,–
I167A,–,0.0683,–,0.043,0.0525,0.0558,–,0.0385,0.0594,0.0549,0.0535,–,–,–,0.0575,0.0461,–,–
T71E,–,0.0669,–,0.0926,0.0685,0.0539,0.0699,–,0.0686,–,0.0716,0.108,0.0606,–,–,–,0.0658,0.0678
R50H,–,–,0.0467,–,0.0768,–,0.0536,–,–,0.0599,0.0442,0.052,–,–,–,–,0.0762,0.0968
K230D,0.0766,0.0633,0.0659,0.0864,0.0793,0.0834,0.0833,0.0712,–,0.0618,0.0677,0.0764,0.0616,–,–,0.0782,–,0.0774
K230C,0.0966,0.0649,0.0363,0.0767,–,0.0791,0.0705,0.0674,0.0809,0.0673,0.0703,–,–,–,0.0972,0.0612,–,0.0534
S124P,–,0.0538,0.0502,0.0864,0.0659,0.0819,–,–,0.0675,0.0767,0.0632,0.0829,0.0787,–,–,–,–,0.0804
M88A,–,0.0524,0.105,0.0706,–,–,0.0758,0.0669,0.0623,0.0572,–,–,0.0543,–,0.0882,0.0337,–,0.0795
S154W,0.0719,0.0624,0.0665,0.0697,0.0465,0.0709,0.0734,–,0.0602,0.0555,–,0.0701,–,0.0671,0.0571,–,0.083,0.0645
K185G,–,0.0605,0.0635,0.123,0.0741,0.107,0.0762,–,0.0602,0.0412,0.0965,–,–,–,–,0.066,0.0676,0.102
I36W,–,–,0.075,0.0671,0.0702,–,0.0627,0.0639,0.0622,0.0534,0.0625,0.0653,0.0488,0.0564,0.072,0.0694,0.0727,0.0682
E223K,0.0711,0.0608,0.0585,0.0963,0.065,–,0.069,0.0678,0.0654,0.054,0.056,0.0578,0.0587,–,–,0.0729,–,0.068

# — the supplement of paper PMC12217912
